Values marked as one replicate rest on one cluster of the flow cell; about a third of the high ones do not repeat.
Tested on: ATP
Assay: switch fluorescence ratio, 500 uM ATP over buffer (Cy3 cluster intensity, sum of 5 cycles each) (fold (ratio)); higher = stronger signal-on switching upon ATP binding; sequences stand for … in TCGTCGGCAGCGTCAGATGTGTATAAGAGACAGTTTTTTTTTTTTTTTTTTTTTTTTT…TC
Conditions: aptamer strand: ATP DNA aptamer (quencher-CACCTGGGGGAGTATTGCGGAGGAAGG + anchor), 100 nM annealed; ATP concentration: 500 uM; one replicate
How it was run: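 Exposure to 500 uM ATP lasted 15 min at 22 °C before imaging, and a selection-buffer image was taken beforehand, for Cy3-labelled switching-strand clusters on a modified Illumina MiSeq flow-cell annealed to 100 nM quencher-labelled ATP aptamer. Five buffer/ATP cycles were run with NaOH stripping and re-annealing between them. The fluorescence ratio per cluster is summed target-cycle over summed buffer-cycle Cy3 intensity, averaged per switch-domain sequence. Clusters outside 100-1000 RFU were excluded.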

| Sequence | switch fluorescence ratio |
| --- | --- |
| GGGCGTGGCT | 1.02 |
| TCCTTTCCGT | 1.17 |
| GGATTGATAA | 0.987 |
| CAGACCGGGA | 1.07 |
| AAACTTGTAG | 1 |
| TTTACGGAGT | 1.01 |
| GCTATTTCCC | 1.15 |
| CTGATTACTT | 0.996 |
| ACTTGGGCA | 1.01 |
| TTGGTCGTTA | 1.02 |
| GCTGACGTAA | 2.17 |
| GTAAACCCGG | 1.51 |
| TGCTTTAAAT | 1.02 |
| CGACGCTGGT | 2.65 |
| TCTTTGTCGA | 0.995 |
| TGTGCTTCTC | 1.04 |
| TTCAATACTA | 1.17 |
| GGGCCGCGTG | 0.972 |
| GGTGGGCTAG | 0.991 |
| TGGACAGGAT | 1 |
| GGTAACTGAA | 0.989 |
| CAAAGGTAAT | 1.06 |
| GGCATTATGG | 0.999 |
| CAAAATCGTT | 0.985 |
| GTCGGCACCC | 1.02 |
| TCTGACAGAT | 1.04 |

| Sequence | switch fluorescence ratio |
| --- | --- |
| CACTAGCAGA | 1.03 |
| ATGCATCG | 1 |
| ATACTGGTTA | 1.02 |
| GCTCAAAAGG | 1.01 |
| TTATGTATAA | 0.986 |
| CTATTAGAAA | 1.02 |
| TAGGCTAATT | 1.01 |
| CGCCGCGGTG | 1.07 |
| ACATGATTCT | 1.02 |
| TATGTACACG | 1.08 |
| GTACCCACGC | 1.38 |
| CATTCCACTT | 1.02 |
| CACAATGGA | 1.04 |
| GAGTGGTCGG | 1 |
| GGGAGAACTA | 0.996 |
| CAATGCGGAA | 1.04 |
| GTGTTAATGT | 0.991 |
| ATACCGCTGC | 1.59 |
| TGATGAGGT | 1.12 |
| ACTAAAAACT | 0.99 |
| TATTCGTCCG | 1.09 |
| ATGAGTCCTA | 0.999 |
| AGACATCTGT | 0.993 |
| CGAGAAGTG | 0.999 |
| AACCCTTGGC | 1 |
| GCGAATCGTC | 0.991 |

| Sequence | switch fluorescence ratio |
| --- | --- |
| ATCGATTGTA | 1.04 |
| TGGTTTAACC | 0.998 |
| TGCAAGATAG | 1.07 |
| TGTTTGGCCA | 1.01 |
| CACGGTTAAT | 1.07 |
| GACTAGTTCG | 0.996 |
| AAAGTCGTCT | 1.19 |
| ACCCGCGTTG | 1.1 |
| AAATCATTCG | 0.993 |
| TGATGTGTT | 1.03 |
| TATCTTAAT | 0.994 |
| GTTGCCATAC | 1.8 |
| GAGATGTCGT | 0.968 |
| GATGGGGCTT | 1.05 |
| GATTACGTT | 1.03 |
| AACGCGGATT | 1 |
| TTAGCTATAT | 4.36 |
| AGGGTGCTGC | 1.01 |
| CAGGGCGGCC | 0.953 |
| GGATGTAGA | 1.02 |
| AGAAAAAAAA | 1.01 |
| GCGGGCAATT | 1.01 |
| TAAATGGT | 0.981 |
| TAGGCCGGGC | 1.03 |
| ACGCACCCAT | 1.45 |
| TTATAGTGT | 1.05 |

| Sequence | switch fluorescence ratio |
| --- | --- |
| CTCGTTACA | 0.955 |
| ACCTGGTAAC | 1.04 |
| GGGAAGTAA | 1.02 |
| AGTCCGATTG | 1 |
| CCATTATGTG | 1 |
| ATCCGTGCTC | 1.22 |
| CTCAATGCCG | 1.09 |
| TATCATGATG | 0.987 |
| CCATAGCTCG | 1.05 |
| TATTTGAATA | 0.964 |
| GGCCTTTAGA | 0.989 |
| AGGTAATCTG | 0.99 |
| TTGACTATTA | 1.01 |
| AAGGACCGTC | 1.05 |
| TGCTACGTCT | 0.981 |
| TAGCGTCACG | 0.943 |
| CAGTCTTCGG | 0.971 |
| CGCTCATGCT | 1.11 |
| CAACTGCCGA | 1.09 |
| TATATCTATC | 0.99 |
| GCCATGGCTA | 1.02 |
| ATACAGTCGT | 1.02 |
| GGGCGCAATT | 1.02 |
| CTTTGAACAT | 1.01 |
| CGACGCGTAA | 7.2 |
| GTACCCGCTG | 1.08 |

| Sequence | switch fluorescence ratio |
| --- | --- |
| TAATAGCCCG | 1 |
| AAAGCGTTAT | 0.983 |
| GGCGAATTAA | 1.05 |
| TCGGTCTATG | 0.968 |
| CTGAGGATGA | 1.01 |
| CAGCTGAACT | 0.998 |
| GTCGCATTAT | 1.23 |
| CTTGACGGGA | 1.2 |
| ACAGGGGTTC | 1.02 |
| CTGATAAAG | 0.937 |
| ATGGGTTTTG | 1.01 |
| GTTAGATGAG | 1.02 |
| ATAATATTAT | 0.993 |
| AGTGCGTGTT | 0.973 |
| AATTGGTGAT | 0.975 |
| AGAAACCTGG | 1.31 |
| TTGTCTGCTT | 1 |
| CGTTTTCAGT | 0.993 |
| GACGCGCAGG | 1.07 |
| TACAGGAA | 1.01 |
| CTTGCGGCGC | 0.964 |
| TACGAGTCG | 0.978 |
| TTCCACTGAT | 1.02 |
| GGAATGGATC | 0.983 |
| TCAGATTATT | 0.995 |
| AACTTGAGTG | 1.06 |

| Sequence | switch fluorescence ratio |
| --- | --- |
| AAACGGTCAG | 0.994 |
| CGGGTATATG | 0.987 |
| GTGTAGACGA | 0.981 |
| CTAGGGCGTA | 1 |
| CCAAAATGGA | 0.992 |
| TTACTGTTAT | 1.09 |
| CACGGGTTTA | 0.971 |
| TACCAGTAG | 1.04 |
| TGGCAATGCA | 1.11 |
| TGTCAATTAG | 1.05 |
| ACGGAACGGA | 1.04 |
| AAACTTGGG | 0.987 |
| AATGTATAGA | 0.992 |
| CAAGGATCGT | 0.961 |
| AGGTACATGG | 1.07 |
| GGGCAGCTGC | 1.1 |
| GGCCATACAT | 0.993 |
| AAGTCTCTTG | 0.997 |
| CAATGCGTAA | 1.06 |
| ACGCTTGCCC | 1.01 |
| GTATGCCCTA | 0.986 |
| GTTTGGGTT | 1.01 |
| CAAACGGTGA | 0.982 |
| TGGACTAGTG | 0.953 |
| AGGTACCTGT | 0.978 |
| GGCTCTAGGT | 0.967 |

| Sequence | switch fluorescence ratio |
| --- | --- |
| AGTTCCAGGT | 1.2 |
| GTTTTACC | 0.996 |
| ATAAAATATA | 0.999 |
| GATTGTGATA | 1.01 |
| TAGTAGCA | 1.06 |
| GGAAGTTTAT | 0.99 |
| GCTTTTGGAA | 1.04 |
| ACAAATACGC | 1.1 |
| GACACCGGGC | 1.12 |
| CGGCAAGGGA | 1.02 |
| GCGATACGA | 6.32 |
| AGAAGTCTCT | 0.989 |
| CTTAGTTTCC | 1.03 |
| GGGGGAAAAC | 0.946 |
| CCTGCTTGTG | 1.01 |
| TGGGGTGTGT | 1.01 |
| TTCGGCAAAC | 3.6 |
| GTAGGCGCGC | 1.02 |
| ATACTCGCGC | 1.19 |
| GTTGACTCG | 1 |
| ACCTTCACTC | 2.1 |
| AGAGGATTGT | 0.973 |
| AACCGGATTG | 0.976 |
| CTTCTGGGCA | 1.14 |
| CGGAGAAACG | 1.01 |
| TTGGCCGAAG | 1.01 |

| Sequence | switch fluorescence ratio |
| --- | --- |
| GCTACGAAGC | 1.05 |
| AAGAGTCAA | 1.02 |
| GTAAAGGTCA | 0.97 |
| CCAAGCCGGT | 1.05 |
| CCGCTTTATG | 1.87 |
| CCCACGCGAT | 1.6 |
| GTCTTTATGG | 1.03 |
| GCCTCTGGCG | 1 |
| GCGCTAAT | 1.07 |
| TTTACCAGAA | 1.05 |
| AAGATCCTAG | 0.987 |
| CTGTCCGAA | 1.03 |
| AATGGGCTT | 0.97 |
| ATTTCGCGTG | 0.958 |
| GGCCAATTCA | 0.983 |
| CGATTATGAA | 0.98 |
| CGGACCGCTC | 1.39 |
| GAAACTTGGG | 0.958 |
| CATGGCCGTT | 0.951 |

— the supplement of paper PMC10126150
